Molecules are shown by their SMILES. The list shows a part of the results. Repeats are few or missing, and single values can be far off.

Drawing on the supplement of paper PMC4604168 (melanoma cell lines), this text covers cell count for ten compounds.

What all share (assay): cell count relative to DMSO control; melanoma cells; higher = more viable cells
Conditions in all cases: library dose: low library concentration; 72 h

Test [1] has as its system MZ2-MEL.
Test [2] concerns MeWo.
The test system of test [3] is RPMI7951.
The test system of test [4] is RVH-421.
The test system of test [5] is SkMel28.
The test system of test [6] is SkMel2.
The test system of test [7] is SkMel30.
Test [8] deals with SkMel5.
The subject of test [9] is UACC257.
Test [10] relates to UACC62.
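Note: cell number obtained by counting DAPI-stained nuclei in high-throughput microscope images with image analysis software, screen run in 1,536-well plates.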

With `COc1ccc(C2=N[C@@H](c3ccc(Cl)cc3)[C@@H](c3ccc(Cl)cc3)N2C(=O)N2CCNC(=O)C2)c(OC(C)C)c1` [Nutlin-3] + C=CCn1c(=O)c2cnc(Nc3ccc(N4CCN(C)CC4)cc3)nc2n1-c1cccc(C(C)(C)O)n1 [MK1775] (first compound 0.1 µM, partner dose 0.02 µM), the cell count in test [1] came to 100%; in [2], 101%; in [3], 100%; in test [4], 90.1%; in [5] it was 70.4%; in test [6] it was 88.7%. Also, the cell count is 89.7% in [7], 80.5% in [8], 71.5% in test [9] and 65% in test [10].

For the compound `Cc1cn(-c2cc(NC(=O)c3ccc(C)c(Nc4nccc(-c5cccnc5)n4)c3)cc(C(F)(F)F)c2)cn1` [nilotinib] + O=C1NC(=O)/C(=C/c2ccc(-c3ccc(F)cc3O)o2)S1 [AS252424] (first compound 0.2 µM, partner dose 1 µM), the cell count in test [1] stood at 97.7%; in test [2], 91.2%; in test [3] it was 83.6%; in test [4], 111%; in test [5] it was 106%; in [6], 85.9%. The cell count in test [7] came out at 89.1%; in test [8], 112%; in test [9], 105%; in test [10], 109%.

Turning to `Cc1cn(-c2cc(NC(=O)c3ccc(C)c(Nc4nccc(-c5cccnc5)n4)c3)cc(C(F)(F)F)c2)cn1` [nilotinib] + C[C@@H]1CCN(C(=O)CC#N)C[C@@H]1N(C)c1ncnc2[nH]ccc12 [CP690550] (first compound 0.2 µM, partner dose 1 µM), the cell count worked out at 110% in [1]; 97.8% in test [2]; 83.1% in test [3]; 84.6% in test [4]; 97.7% in test [5]; 91.9% in [6]. Further, the cell count in test [7] turned out to be 56.5%; in test [8], 115%; in [9], 96.3%; in [10], 110%.

Take `Cn1c(=O)n(-c2ccc(C(C)(C)C#N)cc2)c2c3cc(-c4cnc5ccccc5c4)ccc3ncc21` + NCC(=O)Nc1ccc(-n2nc(C(F)(F)F)cc2-c2ccc3c(ccc4ccccc43)c2)cc1 [OSU03012] (first compound 0.004 µM, partner dose 1 µM): the cell count is 108% in test [1]; 61.3% in test [2]; 95.8% in [3]; 108% in test [4]; 59.9% in [5]; 87.9% in test [6]. Moreover, the cell count in test [7] amounted to 71.1%; in [8] it was 91.7%; in test [9], 75.2%; in [10] it was 57.6%.

Turning to `CC(C)C[C@H](NC(=O)[C@H](Cc1ccccc1)NC(=O)c1cnccn1)B(O)O` [Bortezomib] + CCc1ccc(CCOc2ccc(CC3SC(=O)NC3=O)cc2)nc1 [pioglitazone] (first compound 0.001 µM, partner dose 2 µM), the cell count in [1] came to 75.1%; in [2], 66.6%; in [3], 53%; in test [4], 59.3%; in test [5], 76.6%; in [6], 83.5%. For the same compound, the cell count in test [7] turned out to be 79.4%; in test [8], 102%; in test [9], 86.4%; in test [10] it was 77.3%.

As to `Cc1cc(Nc2cc(N3CCN(C)CC3)nc(/C=C/c3ccccc3)n2)n[nH]1` + COc1ccc(COc2ccc(Cc3cnc(N)nc3N)cc2OC)cc1 [GW2580] (first compound 0.04 µM, partner dose 1 µM), the cell count in test [1] was determined as 103%; in test [2], 90.1%; in test [3] it was 86.8%; in test [4], 114%; in test [5] it was 84.4%; in test [6], 101%. The cell count in test [7] is 95.9%; in [8], 100%; in [9], 99.8%; in test [10] it was 94%.

With `Cc1cc(Nc2cc(N3CCN(C)CC3)nc(/C=C/c3ccccc3)n2)n[nH]1` + Cn1cncc1[C@@](N)(c1ccc(Cl)cc1)c1ccc2c(c1)c(-c1cccc(Cl)c1)cc(=O)n2C [tipifarnib] (first compound 0.04 µM, partner dose 0.01 µM), the cell count is 98.5% in test [1]; 89.4% in test [2]; 97.9% in [3]; 108% in test [4]; 83.1% in test [5]; 84.7% in test [6]. Further, the cell count in [7] stood at 67%; in test [8] it was 105%; in test [9], 69.1%; in [10], 59.7%.

On to `Cc1cn(-c2cc(NC(=O)c3ccc(C)c(Nc4nccc(-c5cccnc5)n4)c3)cc(C(F)(F)F)c2)cn1` [nilotinib] + O=S(=O)(c1ccccc1)N(CC(F)(F)F)c1ccc(C(O)(C(F)(F)F)C(F)(F)F)cc1 [T0901317] (first compound 0.2 µM, partner dose 1.4 µM), for which the cell count in test [1] was determined as 99.4%; in [2] it was 85.5%; in [3], 102%; in test [4], 82.1%; in [5], 95.3%; in [6] it was 94.1%. The cell count came out at 71.1% in test [7], 90.7% in [8], 80.5% in [9] and 85.1% in [10].

`Cn1c(=O)n(-c2ccc(C(C)(C)C#N)cc2)c2c3cc(-c4cnc5ccccc5c4)ccc3ncc21` + CCc1ccc(CCOc2ccc(CC3SC(=O)NC3=O)cc2)nc1 [pioglitazone] (first compound 0.004 µM, partner dose 2 µM): the cell count came out at 93.2% in [1]; 91.8% in test [2]; 110% in test [3]; 90.2% in test [4]; 67.1% in test [5]; 91.1% in test [6]. The cell count was determined as 83.8% in [7], 118% in test [8], 99% in [9] and 93.4% in test [10].

With `Cc1cn(-c2cc(NC(=O)c3ccc(C)c(Nc4nccc(-c5cccnc5)n4)c3)cc(C(F)(F)F)c2)cn1` [nilotinib] + Cc1ccc(NC(=O)c2cccc(N(C)C)c2)cc1NC(=O)c1ccc(O)cc1 [ZM336372] (first compound 0.2 µM, partner dose 2 µM), the cell count stood at 79.8% in [1]; 107% in test [2]; 91.7% in [3]; 91.9% in [4]; 82.5% in [5]; 102% in test [6]. Further, the cell count in test [7] was determined as 83.6%; in test [8] it was 110%; in test [9] it was 85%; in test [10] it was 103%.
